In assay [1] the target is T1, HMGB1(disulfide), disulfide linked form of full-length HMGB1 (HMGB1C23-C45C106h) (rat, UniProt P63159 1-215, disulfide C23-C45; C106 reduced).
T1 construct: unlabelled in Biacore and Attana; also called b-HMGB1(disulfide)
T1 sequence: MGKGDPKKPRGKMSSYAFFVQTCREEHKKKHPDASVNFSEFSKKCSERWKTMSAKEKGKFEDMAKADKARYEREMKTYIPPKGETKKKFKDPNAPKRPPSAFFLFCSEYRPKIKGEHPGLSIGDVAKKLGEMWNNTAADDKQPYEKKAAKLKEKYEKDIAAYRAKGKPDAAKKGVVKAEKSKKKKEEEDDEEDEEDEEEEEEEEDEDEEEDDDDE
Nature of the assay: QCM (Attana A200); polypeptide captured on HSA, HMGB1(disulfide) injected; 1:1 or 1:2 model, relevant kd (most represented). How it is done:
(§1) Binding analysis: The Attana A200® biosensor was used to characterize interactions between the dimeric polypeptides (SEQ ID NO:38-48) and HMGB1(red) under reducing conditions and/or HMGB1(disulfide) under non-reducing conditions. The monomeric ZA3812 (SEQ ID NO:35) was included for comparison. The experiment was performed as a capture assay, in which HSA was immobilized on Attana's sensor chip Low-NonSpecific-Binding (LNB). Immobilization was performed using amine coupling. The instrument has two sensor surfaces and HSA was immobilized on both surfaces. Around 110 Hz of HSA was stably immobilized on the surfaces.
(§2) In the kinetic experiment, HBS-EP+/−2 mM DTT was used as running buffer and the flow rate was 25 μl/min at 22° C. In each cycle, one polypeptide was tested against one concentration of HMGB1. […] The analyte HMGB1(reduced) was diluted in HBS-EP+2 mM DTT within a concentration range of 1.33 to 21.4 μg/ml, and the analyte HMGB1(disulfide) was diluted in HBS-EP buffer within a concentration range of 0.62 to 10 μg/ml. Both analytes were subsequently injected for 84 s over both channel A and B, where channel B was used as a blank surface for curve subtraction. Buffer injections were also made for surface subtractions. After dissociation, the surfaces were regenerated with a 30 s injection of 100 mM HCl followed by a 30 s injection of 20 mM NaOH. Data was collected by Attester Software and subsequently processed in the Evaluation Software. To calculate the kinetic parameters (kₐ and kd) and affinity constant (KD), the experimental data were fitted using a 1:1 or a 1:2 binding model.
(§3) Binding analysis of dimeric polypeptides targeting HMGB1: The interactions of a set of dimeric polypeptides, as well as one monomeric polypeptide, with HMGB1(reduced) and/or HMGB1(disulfide) were analyzed using an Attana A200® biosensor instrument by injecting various concentrations of HMGB1 over a surface containing captured polypeptides in fusion with ABD bound by immobilized HSA.

In assay [2] the target is T1, HMGB1(disulfide), disulfide linked form …. Description: SPR (Biacore 2000); Z-ABD captured on HSA, analyte injected; heterogeneous ligand parallel reactions model, ka1. The method, then: (§4) Biacore kinetic and specificity analysis: The interactions of the A-box binding Z-ABD polypeptides ZA3812 (SEQ ID NO:35) and ZA3914 (SEQ ID NO:36) with four different HMGB1 variants were analyzed in a Biacore instrument by injecting various concentrations of HMGB1 variants over a surface containing ZA3812 and ZA3914, respectively, captured on immobilized HSA. […] In addition, the interaction of the B-box binding Z-ABD polypeptide ZA3975 (SEQ ID NO:37) was analyzed for binding to HMGB1(red) in the same manner.

The target of assay [3] is T2, boxA(disulfide), disulfide linked form of A-box domain of HMGB1 (human, UniProt P09429 1-89, disulfide C23-C45).
T2 construct: also called b-boxA(disulfide)
T2 sequence: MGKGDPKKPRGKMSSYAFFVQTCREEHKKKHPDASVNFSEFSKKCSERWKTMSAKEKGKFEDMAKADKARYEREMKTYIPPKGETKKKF
Nature of the assay: SPR (Biacore 2000); Z-ABD captured on HSA, analyte injected; 1:1 Langmuir model. How it is done: as §4

For assay [4], the target named is T3, human serum albumin (HSA) (human, UniProt P02768 25-609).
T3 construct: Immobilized on sensor chips to capture ABD (PP013) fusions
T3 sequence (P02768 25-609 limits assumed): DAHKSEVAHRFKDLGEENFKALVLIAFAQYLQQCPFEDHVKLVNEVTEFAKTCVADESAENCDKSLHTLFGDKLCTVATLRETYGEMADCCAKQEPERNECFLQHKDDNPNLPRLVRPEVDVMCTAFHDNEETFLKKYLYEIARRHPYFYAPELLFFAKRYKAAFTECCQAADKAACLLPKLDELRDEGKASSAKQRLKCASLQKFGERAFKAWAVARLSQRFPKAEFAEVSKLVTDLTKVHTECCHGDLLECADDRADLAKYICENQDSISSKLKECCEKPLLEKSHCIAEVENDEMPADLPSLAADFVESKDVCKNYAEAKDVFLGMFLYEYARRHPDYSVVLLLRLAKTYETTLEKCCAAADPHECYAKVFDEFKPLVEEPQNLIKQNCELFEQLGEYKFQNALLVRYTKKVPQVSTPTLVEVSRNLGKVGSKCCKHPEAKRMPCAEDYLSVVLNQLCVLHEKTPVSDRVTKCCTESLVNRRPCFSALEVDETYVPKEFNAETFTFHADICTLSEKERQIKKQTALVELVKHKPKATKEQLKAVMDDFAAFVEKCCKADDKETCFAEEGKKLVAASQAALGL
Nature of the assay: SPR (Biacore 2000); capture on immobilized HSA through the ABD moiety. On the technique in general: SPR reads the build-up and loss of mass on a sensor chip optically.

Assay [5] has as its target T1, HMGB1(disulfide), disulfide linked form …. Description: SPR (Biacore 2000); Z-ABD captured on HSA, analyte injected; heterogeneous ligand parallel reactions model, kd2. The method, then:
as §4

Assay [6] concerns the target T4, HMGB1(red), fully reduced form of full-length HMGB1 (HMGB1C23hC45hC106h) (rat, UniProt P63159 1-215, all cysteines reduced (C23h, C45h, C106h)).
T4 construct: Produced by HMGBiotech; also called HMGB1(reduced); b-HMGB1(red)
T4 sequence: T1 sequence
Nature of the assay: SPR (Biacore 2000); Z-ABD captured on HSA, analyte injected, 2 mM DTT; 1:1 Langmuir model. How it is done:
as §4

In assay [7] the target is T5, GST-boxA(red), reduced form of A-box domain of HMGB1 with N-terminal GST tag (human, cysteines reduced).
T5 construct: Used biotinylated (b-GST-boxA(red)) in ELISA; also called b-GST-boxA(red)
The assay is described as above. The method, then: as §4

Assay [8] concerns the target T1, HMGB1(disulfide), disulfide linked form …. Description: QCM (Attana A200); polypeptide captured on HSA, HMGB1(disulfide) injected; 1:1 or 1:2 model, average KD. How it is done:
as §1, §2, §3

Assay [9] shares this target. Nature of the assay: SPR (Biacore 2000); Z-ABD captured on HSA, analyte injected; heterogeneous ligand parallel reactions model, kd1. The method, then:
as §4

B1: ZA3812 ([ZH 27]-ASGS-PP013) (designed binder)
chain: AEAKYAKEDWDAFWEIIWLPNLTDAQQRAFIYKLEDDPSQSSELLSEAKKLNDSQAPKASGSLAEAKEAANAELDSYGVSDFYKRLIDKAKTVEGVEALKDAILAALP
On to B1, for which the koff is 0.00048 s⁻¹ in assay [1]; 0.00021 s⁻¹ in [3]; 3.5e-05 s⁻¹ in [5]; 0.0004 s⁻¹ in assay [6]; 7.6e-05 s⁻¹ in assay [7]; 0.018 s⁻¹ in assay [9]. In addition, the kon in assay [2] came to 160000 M⁻¹ s⁻¹; in assay [3] it was 150000 M⁻¹ s⁻¹; in assay [6], 500000 M⁻¹ s⁻¹; in assay [7], 72000 M⁻¹ s⁻¹. Besides, the Kd in [3] came to 1.4 nM; in assay [6], 0.81 nM; in assay [7] it was 1.1 nM; in [8], 130 nM. In [4], the binding result is on record as “binds”.

B2: ZZA4263, Z(boxB)-L2-Z(boxA)-ABD (designed binder)
chain: AEAKYAKEAWLAEQEIWQLPNLTEAQFQAFILKLIDDPSQSSELLSEAKKLNDSQAPKGAPGGGGSTSAEAKYAKEDWDAFWEIIWLPNLTDAQQRAFIYKLEDDPSQSSELLSEAKKLNDSQAPKASGSLAEAKEAANAELDSYGVSDFYKRLIDKAKTVEGVEALKDAILAALP
notes: Heterodimer of ZH27 and ZH32 with PP013
In assay [1], B2 showed a koff of 0.00095 s⁻¹. The molecule also came in with a Kd in [8] of 7.6 nM.

Usually koff stands for the first-order rate constant of dissociation. A lower koff goes with a long-lived complex. For orientation: kon means a measure of how fast the partners come together. Low readings indicate slow association, high ones fast association. One may read the Kd as the free concentration of one partner at which half of the binding sites on the other are occupied at equilibrium, for simple one-to-one binding.
